Assay results from PubChem BioAssay AID686979 (National Center for Advancing Translational Sciences (NCATS), 2013).
Several values for one entry are separate records, joined by “and”; a condition that tells them apart may be missing. Equal values may be shown once. Screen size: about 420,000 compounds; about 50,000 (12%) were called active. The shares of active, inactive and inconclusive entries below differ from those in the screen. Calls follow the shape of the dose curve; as a rule, active = well fitted inhibition curve with a large enough effect; inconclusive = small, poorly fitted or top-dose-only effect; inactive = flat fitted curve, though single readings scatter. Where the call is inconclusive, the potency comes from a doubtful curve fit.

Test: qHTS for Inhibitors of human tyrosyl-DNA phosphodiesterase 1 (TDP1): qHTS in cells in presence of CPT; also: nearly all actives have a fitted effect of over 55% in size
Conditions: chicken DT40 Tdp1-/-;hTDP1 cells + 20 nM CPT, ATP luminescence, 48 h; activity change, negative = growth inhibition: at 46.2 µM (top of the series) unless noted
Procedure, shortened: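 Chicken DT40 Tdp1-/- cells complemented with human TDP1, 400 cells/well, exposed to compounds plus 20 nM camptothecin for at least 48 h at 37 C; viability read as ATP content by CellTiter-Glo luminescence.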
% is scaled to controls: 0 for no effect and ±100 for the full control effect; potency is read from the fitted curve at half-maximal effect; tags tell the direction and shape of the fitted curve.

| SMILES | Potency | activity change, negative = growth inhibition |
| --- | --- | --- |
| C(=N\Nc1nncc2ccccc12)/c1ccccc1 | inactive |  |
| CC1CCCC(NS(=O)(=O)c2cccc3nsnc23)C1C (stereo unspecified) | inconclusive: 29.1 µM [inhibitor, single point] |  |
| O=c1cc(CN2CCN(c3ccccc3F)CC2)c2ccccc2o1 | inconclusive: 29.1 µM [inhibitor, single point] |  |
| OCCN=c1cc(-c2ccccc2)oc2ccc(Cl)cc12 | inconclusive: 29.1 µM [inhibitor, single point] |  |
| O=C(NC(c1ccc(-c2ccccc2)cc1)c1cnccn1)C1CCN(Cc2ccc(Cl)c(Cl)c2)CC1 (stereo unspecified) | inconclusive: 20.6 µM [inhibitor, single point] |  |
| Cc1ccc(NC(=O)NCc2ccc3c(c2)OCO3)c(C)c1 | inactive |  |
| COc1cccc(C(=O)Nc2cc(-c3cn4cccnc4n3)ccc2C)c1OC | inconclusive: 18.4 µM [inhibitor, single point] |  |
| CCOc1ccc2c(c1)-c1c(ssc1=S)C(C)(C)N2C(=O)c1ccco1 | active: 5.17 µM |  |
| O=[N+]([O-])c1c(-c2cn[nH]c2)n[nH]c1-c1cn[nH]c1 | inactive |  |
| O=c1[nH]c(/C(=N\O)c2ccccc2)no1 | inconclusive: 23.1 µM [inhibitor, single point] |  |
| O=C(Cn1cc2c(n1)CCCCC2)NC1CCCCCC1 | inconclusive: 29.1 µM [inhibitor, single point] |  |
| c1ccc(Nc2nc(-c3ccccn3)cs2)cc1 | active: 13 µM |  |
| Cc1cccc(-n2ncc3c2CCCC3NC(=O)Cc2c(C)noc2C)c1C (stereo unspecified) | inconclusive: 16.4 µM [inhibitor, partial curve] |  |
| CC(C)(C)OC(=O)N/N=C\c1ccc(OC(=O)c2ccco2)cc1 | inconclusive: 25.9 µM [inhibitor, single point] |  |
| Cc1ccc(C(=O)NC(NC(=O)c2ccc(C)cc2)C(Cl)Cl)cc1 | inconclusive: 25.9 µM [inhibitor, single point] |  |
| Cc1ccccc1Cn1nc(C)c(NC(=O)c2noc3c2CC(C(C)(C)C)CC3)c1C (stereo unspecified) | inconclusive: 16.4 µM [inhibitor, single point] |  |
| Cc1ccc(C(=O)Nc2cc(C(F)(F)F)ccc2N2CCCCC2)cc1[N+](=O)[O-] | active: 18.4 µM |  |
| O=C(Nc1ccccc1)C1=C[C@H](c2coc3ccccc3c2=O)C[C@H](OCCCCO)O1 | inconclusive: 29.1 µM [inhibitor, single point] |  |
| O=C1Cc2c([nH]c3ccc(Br)cc23)-c2ccccc2N1 | inconclusive: 33.5 µM [inhibitor, single point] and inconclusive: 29.1 µM [inhibitor, single point] |  |
| Cc1ccc(N2CC(C(=O)Nc3nnc(C)s3)CC2=O)cc1 (stereo unspecified) | inactive |  |
| Cc1ccc(-c2nnc(CSc3nc(C(C)C)nc4sc(C)c(C)c34)o2)cc1 | inconclusive: 16.4 µM [inhibitor, partial curve] |  |
| CC(C)=CC(=O)O[C@@H]1Cc2cc3ccc(=O)oc3cc2OC1(C)C | inconclusive: 25.9 µM [inhibitor, single point] |  |
| O=C(/C=C/c1ccccc1)c1cccs1 | active: 6.68 µM |  |
| CCNC(=O)C(=O)N/N=C/c1cc([N+](=O)[O-])ccc1O | active: 14.6 µM |  |

| SMILES | Potency | activity change, negative = growth inhibition |
| --- | --- | --- |
| Cc1ncoc1C(=O)N1CCCC(C(=O)c2ccc(-c3ccccc3)cc2)C1 (stereo unspecified) | active: 18.4 µM |  |
| O=C(COC(=O)c1cc(=O)[nH]c2ccccc12)c1cccs1 | inactive |  |
| CCn1cc(C(=O)N[C@@H](CCSC)C(=O)NCCCN2CCOCC2)c(=O)c2cc3c(cc21)OCO3 | inactive |  |
| CC(C)Cn1c(N)c(C(=O)COC(=O)c2cccnc2Cl)c(=O)n(C)c1=O | inconclusive: 7.31 µM [inhibitor, partial curve] |  |
| Cc1nc2ccc(Cl)cc2nc1C | inactive |  |
| COCCNC(=O)c1cccc(OC2CCN(C(C)COc3ccccc3)CC2)c1 (stereo unspecified) | inconclusive: 29.1 µM [inhibitor, single point] |  |
| Cc1ccc2c(CC(=O)NC3CCCc4ccccc43)coc2c1 (stereo unspecified) | inactive |  |
| CC[C@H]1OC(=O)C[C@@H](O)[C@H](C)[C@@H](O[C@@H]2O[C@H](C)[C@@H](O)[C@H](N(C)C)[C@H]2O)[C@@H](CCN2C[C@H](C)C[C@H](C)C2)C[C@@H](C)C(=O)/C=C/C(C)=C/[C@@H]1CO[C@@H]1O[C@H](C)[C@@H](O)[C@@H](OC)[C@H]1OC | inactive |  |
| Cc1c(Cl)cccc1NC(=O)C(=O)NNC(=O)c1ccccc1F | inconclusive: 29.1 µM [inhibitor, single point] |  |
| CSc1ccc(C(=O)C2CCCN(C(=O)c3ccc(C)nc3)C2)cc1 (stereo unspecified) | active: 20.6 µM |  |
| COc1ccccc1-c1nnc2sc(C3CCCCC3)nn12 | inconclusive: 20.6 µM [inhibitor, single point] |  |
| CC(Sc1nc2sc3c(c2c(=O)n1-c1ccccc1)CCCC3)C(=O)O (stereo unspecified) | inactive |  |
| CCOC(=O)Cc1cc(-c2ccccc2)nc2ccc3ccccc3c12 | inconclusive: 29.1 µM [inhibitor, single point] |  |
| Cc1nc(C(=O)NNC(=O)c2ccccc2)c(C(F)(F)F)o1 | inconclusive: 29.1 µM [inhibitor, single point] |  |
| Cc1cc(C)cc(N=c2c([N+](=O)[O-])nn(-c3ccc4c(c3)OCCO4)n2O)c1 | active: 2.59 µM |  |
| CSc1nc(N)nc2c1ncn2CC(=O)NCc1ccc2c(c1)OCO2 | active: 16.4 µM |  |
| O=C(NCc1nnc2c(C(F)(F)F)cc(Cl)cn12)C1CCCC1 | inconclusive: 0.651 µM [inhibitor, full curve, poor fit] |  |
| CC1CCN(C(=O)c2c(NC(=O)c3ccccc3F)sc3c2CCC(C(C)(C)C)C3)CC1 (stereo unspecified) | inactive |  |
| Cc1ccc(OCC(=O)Nc2ccccc2C(=O)OCc2cc(=O)n3nc(C4CC4)sc3n2)cc1 | active: 7.31 µM |  |
| CSc1ccccc1NC(=O)C1CC(c2c(F)cccc2Cl)=NO1 (stereo unspecified) | inconclusive: 23.1 µM [inhibitor, single point] |  |
| Clc1ccc(-c2cnc3cccnn23)cc1 | inconclusive: 29.1 µM [inhibitor, single point] |  |
| Cc1cccc(CNc2ncncc2-c2cccc(NS(C)(=O)=O)c2)c1 | inactive |  |
| CC(=O)c1cccc(NC(=S)NC(=O)c2ccccc2Br)c1 | inactive |  |
| COc1ccc([C@H]2CC(=O)C=C(c3cccc(Cl)c3)C2)cc1OC | active: 14.6 µM |  |

| SMILES | Potency | activity change, negative = growth inhibition |
| --- | --- | --- |
| COc1ccc([C@H]2CC(=O)C=C(c3ccc(Cl)c(F)c3)C2)cc1 | inactive |  |
| CCOC(=O)c1c(NC(=O)C2C3C=CC(C3)C2C(=O)O)sc2c1CC(C)CC2 (stereo unspecified) | inconclusive: 2.91 µM [inhibitor, partial curve, poor fit] |  |
| Cc1ccc(CN(Cc2ccco2)C(=O)COc2c(C)cc(C)cc2C)cc1 | active: 23.1 µM |  |
| O=C(NC1CC2CCCC(C1)N2S(=O)(=O)c1ccccc1)C1CCCCC1 (stereo unspecified) | inconclusive: 7.31 µM [inhibitor, partial curve] |  |
| COc1ccc(CCNC(=S)N2CCN(S(=O)(=O)c3ccccc3F)CC2)cc1 | inconclusive: 13 µM [inhibitor, partial curve] |  |
| COc1cc(C(N)=O)cc(Cl)c1OC | inconclusive: 16.4 µM [inhibitor, single point] |  |
| Cc1cccc2cc(/C=N/NC(=O)c3ccncc3)c(Cl)nc12 | inactive |  |
| CC1(c2ccc3c(c2)OCO3)NC(=O)N(CC(=O)c2ccc[nH]2)C1=O (stereo unspecified) | inactive |  |
| CCn1cc(S(=O)(=O)c2ccc(OC)cc2)c(=O)c2cc(F)c(N3CCC(C)CC3)cc21 | inconclusive: 23.1 µM [inhibitor, single point] |  |
| COc1ccc(C(C)(O)c2nc(-c3ccc(C)c(C)c3)cs2)cc1 (stereo unspecified) | inconclusive: 25.9 µM [inhibitor, single point] |  |
| COc1ccc(N2CCN(CC(O)COC(C)(C)C)CC2)cc1 (stereo unspecified) | inactive |  |
| O=C(C1CCC(=O)N(C2CCCC2)C1)N1CCC(Oc2cccc(F)c2)CC1 (stereo unspecified) | inconclusive: 13 µM [inhibitor, single point] |  |
| Cc1nc2ccc(C(=O)OCC(=O)N(C)c3ccccc3)cc2nc1C | inconclusive: 29.1 µM [inhibitor, single point] |  |
| O=C(COc1ccccc1Br)NC1CCCC1 |  | inconclusive: -31.1% [inhibitor] |
| COc1ccc(C(C)(C)C)cc1NC(=O)c1ccc2ncsc2c1 | inconclusive: 20.6 µM [inhibitor, single point] |  |
| CCN(CC)C(=O)C(Oc1ccc(S(=O)(=O)N2CCCC2)cc1[N+](=O)[O-])c1ccccc1 (stereo unspecified) | inactive |  |
| CCOC(=O)Nc1oc2ccccc2c(=O)c1CN1CCOCC1 | inactive |  |
| C[C@@H]1CN([C@@H](C)CO)C(=O)c2cc(NS(C)(=O)=O)ccc2O[C@@H]1CN(C)Cc1ccc(C(F)(F)F)cc1 | inconclusive: 32.6 µM [inhibitor, single point] |  |
| CCCCNS(=O)(=O)c1ccc2nc(-c3cccnc3)cc(C(=O)NCCC)c2c1 | inconclusive: 18.4 µM [inhibitor, single point] |  |
| Oc1ccc(-c2nc3ccccn3c2Nc2ccc3c(c2)OCCO3)cc1 | inconclusive: 16.4 µM [inhibitor, partial curve] |  |
| CCCOc1ccc(C(=O)Nc2ccc(CN3CCOCC3)cc2)cc1 | inconclusive: 18.4 µM [inhibitor, single point] |  |
| CCCCCCSc1ccc(-c2nc3ccc(C)cn3c2NCc2ccccc2)cc1OC | active: 16.4 µM |  |
| CCOc1cc(CNc2ccc(CNc3ncn[nH]3)cc2)ccc1OCc1ccccc1 | inconclusive: 29.1 µM [inhibitor, single point] |  |
